Measurements published in publication PMC3158102.
No constants are given. Whether binding was seen depends on the method and setting. Binding seen in cells or lysates may run through a third protein. Some binding calls cover weakened binding; strength is not graded here. One block for each substance: values may come before it.

Sequences of proteins named here, by UniProt entry; tags and fusion partners are left off. A change or cut given only in a name is not applied to a line headed by its entry. Residues count along the entry.
UniProt P46940: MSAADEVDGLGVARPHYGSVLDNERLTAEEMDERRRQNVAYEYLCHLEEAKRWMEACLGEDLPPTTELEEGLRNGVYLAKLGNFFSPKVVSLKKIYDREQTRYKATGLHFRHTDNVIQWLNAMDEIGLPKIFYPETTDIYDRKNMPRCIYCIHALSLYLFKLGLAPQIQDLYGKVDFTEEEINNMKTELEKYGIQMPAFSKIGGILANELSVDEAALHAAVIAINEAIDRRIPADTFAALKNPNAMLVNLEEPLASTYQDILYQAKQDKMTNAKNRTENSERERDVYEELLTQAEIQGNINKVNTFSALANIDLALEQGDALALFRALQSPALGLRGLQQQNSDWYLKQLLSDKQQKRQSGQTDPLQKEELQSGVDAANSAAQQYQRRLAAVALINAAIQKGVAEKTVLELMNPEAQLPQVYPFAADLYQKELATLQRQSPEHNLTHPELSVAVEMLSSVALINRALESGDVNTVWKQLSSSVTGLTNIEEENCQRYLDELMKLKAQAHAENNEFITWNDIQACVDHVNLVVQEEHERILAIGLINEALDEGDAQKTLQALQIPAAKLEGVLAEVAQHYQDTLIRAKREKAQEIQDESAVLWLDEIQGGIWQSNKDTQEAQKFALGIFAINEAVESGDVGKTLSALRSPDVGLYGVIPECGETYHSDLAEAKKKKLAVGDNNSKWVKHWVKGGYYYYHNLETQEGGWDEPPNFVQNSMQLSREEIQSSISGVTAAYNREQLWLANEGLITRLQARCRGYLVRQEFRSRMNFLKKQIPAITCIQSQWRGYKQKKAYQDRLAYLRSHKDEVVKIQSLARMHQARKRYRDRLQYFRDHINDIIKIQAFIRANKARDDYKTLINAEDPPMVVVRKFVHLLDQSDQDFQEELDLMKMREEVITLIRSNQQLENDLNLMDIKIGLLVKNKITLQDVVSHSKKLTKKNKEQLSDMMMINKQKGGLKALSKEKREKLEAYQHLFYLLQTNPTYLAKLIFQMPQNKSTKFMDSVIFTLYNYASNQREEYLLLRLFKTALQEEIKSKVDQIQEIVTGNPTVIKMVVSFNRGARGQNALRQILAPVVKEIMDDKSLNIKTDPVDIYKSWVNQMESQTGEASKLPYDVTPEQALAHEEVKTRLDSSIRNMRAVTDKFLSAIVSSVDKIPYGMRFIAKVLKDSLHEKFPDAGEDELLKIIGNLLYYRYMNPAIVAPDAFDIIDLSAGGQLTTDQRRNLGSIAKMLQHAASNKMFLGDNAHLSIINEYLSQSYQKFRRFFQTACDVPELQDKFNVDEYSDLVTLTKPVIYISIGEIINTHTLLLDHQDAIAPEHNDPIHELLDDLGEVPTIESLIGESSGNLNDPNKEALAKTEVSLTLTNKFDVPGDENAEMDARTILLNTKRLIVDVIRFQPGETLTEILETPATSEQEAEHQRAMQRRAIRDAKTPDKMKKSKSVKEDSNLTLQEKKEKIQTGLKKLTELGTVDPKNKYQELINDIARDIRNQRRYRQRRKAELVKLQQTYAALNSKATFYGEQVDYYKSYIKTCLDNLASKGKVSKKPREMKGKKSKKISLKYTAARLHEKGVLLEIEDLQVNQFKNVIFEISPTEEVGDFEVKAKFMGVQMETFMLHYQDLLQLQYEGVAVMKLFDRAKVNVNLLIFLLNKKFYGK
GST-IQGAP1-amino-terminus (NT) (residues 1-863): residues 1-863 of P46940
GST-IQGAP1 1-265: residues 1-265 of P46940
GST-IQGAP1 1-160: residues 1-160 of P46940
GST fusion protein containing IQGAP1 residues 1-44: residues 1-44 of P46940
GST fusion protein containing IQGAP1 residues 160-431: residues 160-431 of P46940
UniProt P25025: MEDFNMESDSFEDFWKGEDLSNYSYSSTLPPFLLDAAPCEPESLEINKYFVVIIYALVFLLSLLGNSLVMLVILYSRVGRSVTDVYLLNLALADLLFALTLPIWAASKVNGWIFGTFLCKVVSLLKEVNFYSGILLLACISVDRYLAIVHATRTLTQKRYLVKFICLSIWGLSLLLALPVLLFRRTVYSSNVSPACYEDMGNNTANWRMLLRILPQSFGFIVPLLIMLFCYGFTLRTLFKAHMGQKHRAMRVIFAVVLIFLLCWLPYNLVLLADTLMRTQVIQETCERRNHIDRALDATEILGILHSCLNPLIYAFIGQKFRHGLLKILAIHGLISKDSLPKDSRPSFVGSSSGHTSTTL

How the values were obtained:
[1] = target: GST fusion protein containing IQGAP1 residues 1-44 (UniProt P46940); experiment: pull-down; GST or GST-IQGAP1 fragments on glutathione beads incubated with lysates of differentiated HL-60 cells stably expressing CXCR2; western blot with anti-CXCR2 antibody; only the target purified
[2] = target: GST fusion protein containing IQGAP1 residues 160-431 (UniProt P46940); experiment: as above
GST-IQGAP1 1-160 = GST-IQGAP1 1-160 (UniProt P46940); experiment: as above
GST-IQGAP1 1-265 = GST-IQGAP1 1-265 (UniProt P46940); experiment: as above
[3] = target: GST-IQGAP1-amino-terminus (NT) (residues 1-863) (UniProt P46940); experiment: as above
[4] = target: IQ motif containing GTPase activating protein 1 (IQGAP1), endogenous in differentiated HL-60 cells (human (endogenous in HL-60)) (UniProt P46940); experiment: co-IP; reverse co-IP: differentiated HL-60 cells cross-linked with 2 mM DSP after 100 ng/ml CXCL8, lysed in 1x RIPA; anti-IQGAP1 polyclonal rabbit antibody and protein A/G agarose; western blot for CXCR2
[5] = target: CXCR2 stably expressed in HEK293 cells (UniProt P25025); experiment: co-IP; HEK293-CXCR2 cells transiently transfected with vector or IQGAP1 1-160 construct, CXCL8 (100 ng/ml) or carrier buffer 5 min at 37 C; anti-CXCR2 antibody conjugated to sepharose beads; immunoblot for IQGAP1
[6] = target: CXCR2 stably over-expressed in differentiated HL-60 cells (UniProt P25025); experiment: co-IP; anti-CXCR2 antibody-coupled Sepharose; lysates of differentiated HL-60 cells expressing CXCR2, untreated or 100 ng/ml CXCL8 for 1 min; western blot for IQGAP1
[7] = target: CXCR2 stably over-expressed in differentiated HL-60 cells (UniProt P25025); experiment: co-IP; differentiated HL-60 cells lysed in 0.1% triton X-100 in PBS; anti-CXCR2 antibody; in the presence of IQGAP1 fragment 1-160 (20 or 40 mg), control fragment IQGAP1 161-431 or buffer only; immunoblot for IQGAP1
[8] = target: CXCR2 stably over-expressed in differentiated HL-60 cells (UniProt P25025); experiment: condition: only after 5 min of stimulation of the cells with 100 ng/ml CXCL8; co-IP; anti-CXCR2 antibody-coupled Sepharose; lysates of differentiated HL-60 cells expressing CXCR2 stimulated with 100 ng/ml CXCL8 for 5 min; western blot for IQGAP1

- binding [1]: no binding
- binding [2]: no binding
- binding (GST-IQGAP1 1-160): binds
- binding (GST-IQGAP1 1-265): binds
- binding [3]: binds
- binding [4]: binds
Substance: CXCR2 stably over-expressed in differentiated HL-60 cells (from UniProt P25025 1-360) (receptor)

- binding [5]: binds
Substance: IQGAP1, endogenous in HEK293-CXCR2 cells (from UniProt P46940 1-1657)

- binding [6]: binds
- binding [7]: binds
- binding [8]: no binding
Substance: IQ motif containing GTPase activating protein 1 (IQGAP1), endogenous in differentiated HL-60 cells (from UniProt P46940 1-1657)
